PubChem BioAssay AID488969 (Vanderbilt High Throughput Screening Facility, 2010)
In all, about 110,000 compounds were measured (“z-score”: median about -0.1, highest 2% from about 2 on). This is one part of the list.

Target: Metabotropic glutamate receptor 8 (Rattus norvegicus) (UniProt P70579)
Experiment: rat mGluR8 modulators via GIRK flux, primary screen, cell-based, thallium flux, HTS (AID 488969)
Details: HEK293 rat mGluR8, GIRK (G protein-gated inwardly rectifying potassium channel) thallium flux, FluoZin2; at 10 µM; stronger effect = higher value; submaximal glutamate (EC20) added with thallium

UniProt P70579, sequence (P70579 whole entry, looked up): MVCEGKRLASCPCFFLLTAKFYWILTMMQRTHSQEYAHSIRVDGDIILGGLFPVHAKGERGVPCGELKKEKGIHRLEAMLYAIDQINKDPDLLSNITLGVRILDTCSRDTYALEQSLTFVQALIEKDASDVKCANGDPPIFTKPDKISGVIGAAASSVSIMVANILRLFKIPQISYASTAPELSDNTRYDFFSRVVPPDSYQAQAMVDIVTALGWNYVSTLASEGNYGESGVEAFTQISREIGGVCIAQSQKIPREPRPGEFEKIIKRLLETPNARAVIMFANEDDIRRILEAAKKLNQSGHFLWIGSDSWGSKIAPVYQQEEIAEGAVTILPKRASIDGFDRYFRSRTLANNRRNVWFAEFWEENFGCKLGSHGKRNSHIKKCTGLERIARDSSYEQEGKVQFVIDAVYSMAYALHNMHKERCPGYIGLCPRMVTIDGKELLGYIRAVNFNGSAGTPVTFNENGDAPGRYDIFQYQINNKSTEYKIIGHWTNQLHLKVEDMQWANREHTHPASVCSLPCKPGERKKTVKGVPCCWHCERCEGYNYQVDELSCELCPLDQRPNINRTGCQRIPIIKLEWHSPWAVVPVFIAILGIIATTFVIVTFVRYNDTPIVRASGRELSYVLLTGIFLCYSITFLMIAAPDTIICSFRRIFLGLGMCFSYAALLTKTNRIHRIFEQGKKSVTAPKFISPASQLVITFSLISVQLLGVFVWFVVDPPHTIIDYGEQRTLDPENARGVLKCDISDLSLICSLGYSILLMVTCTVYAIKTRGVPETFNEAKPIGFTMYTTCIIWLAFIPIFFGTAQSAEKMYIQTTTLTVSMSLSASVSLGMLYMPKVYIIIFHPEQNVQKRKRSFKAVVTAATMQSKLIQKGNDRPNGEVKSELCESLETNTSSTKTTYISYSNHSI

Compound | z-score
CCn1cc([N+](=O)[O-])c(C(=O)Nc2nc(-c3ccc(C)cc3)c(C)s2)n1 | -0.546
NC(=O)CSc1nnc(-c2ccncc2)n1-c1ccc(Cl)cc1 | -0.00762
O=C(NN1C(=O)C2C3C=CC(C4CC34)C2C1=O)c1ccc(Cl)c(Cl)c1 (stereo not given) | -0.0159
O=C(CN1CCc2ccccc2C1)NCc1ccco1 | 0.133
COc1ccc(O)c(C(=O)/C=C/c2cc3ccccc3o2)c1 | -0.139
COCCCNC(=O)Cn1cc(/C=C(\C#N)C(=O)N2CCN(c3ccccc3)CC2)c2ccccc21 | 0.0645
Cc1cccc(NC(=O)c2cnc3sccn3c2=O)c1C | 0.631
Nc1ccc2nc(-c3cc(Cl)c(N)c(Cl)c3)[nH]c2c1 | -0.984
CCCCOc1ccc(C(=O)NCc2ccncc2)cc1 | -0.118
CCOC(=O)N1CCN(C(=O)c2ccc(CS(=O)(=O)c3ccccc3OC)o2)CC1 | -0.139
NS(=O)(=O)c1ccc(CNC(=O)CCC2CCCCC2)cc1 | 0.528
COc1ccc(NC(=O)C(=O)NCCO)cc1Cl | -0.116
O=C(CSc1nnnn1Cc1ccccc1)N1CCN(c2ccccc2)CC1 | -0.22
O=c1[nH]c(CN2CCN(c3ccc([N+](=O)[O-])cc3)CC2)nc2ccsc12 | 0.066
COCCn1nnnc1C(c1cc2ccc(C)cc2[nH]c1=O)N(Cc1ccco1)Cc1cccs1 (stereo not given) | -0.191
CCOC(=O)c1c(C)nc2sc(C(N)=O)c(N)c2c1-c1ccccc1 | -1.25
CCSc1nc2[nH]ncc2c(=O)[nH]1 | -0.145
Cc1nnc(SCCn2c(N(C)Cc3ccccc3)nc3c2c(=O)n(C)c(=O)n3C)s1 | -0.304
CCOC(=O)Cn1cnc2c(C#N)c3n(c2c1=O)CCCCC3 | 0.0642
CCCCNC(=O)c1onc(CSc2ccc(C(C)C)cc2)c1C(=O)O | -0.347
COC(=O)N1CCN(c2ccc(OC)cc2)CC1 | -0.134
COc1ccccc1CN1C(=O)CCC1(C)C(=O)NCc1cccnc1 (stereo not given) | 0.855

Compound | z-score
O=C(c1cc2nc(-c3ccco3)cc(C(F)(F)F)n2n1)N1CCN(c2ccccn2)CC1 | -0.996
CN(c1ccc(C(=O)NCc2ccco2)cc1)S(C)(=O)=O | -0.288
O=C(CSc1ccc2nnc(-c3ccccn3)n2n1)Nc1ccc2c(c1)OCCO2 | -0.598
Cc1cc(-n2nnc3ccccc32)nc2ccccc12 | 0.00551
COc1cc(C2C(C#N)=C(N)Oc3cc(N(C)C)ccc32)cc2c1OCO2 (stereo not given) | -0.326
CC(C)NS(=O)(=O)c1ccc(CCC(=O)NCc2ccc3c(c2)OCO3)cc1 | 0.0548
O=C(COC(=O)c1cccc([N+](=O)[O-])c1)NCc1ccc2c(c1)OCO2 | -0.0402
Cc1c(Cl)c(C(=O)Nc2nc3ccccc3n2CCN2CCCCC2)nn1C | -0.0503
COC(=O)C(C)Sc1nc2c(c(=O)[nH]c(=O)n2C)n1CCC(C)C (stereo not given) | -1.33
CN1C=C(C(F)(F)F)C=C/C1=C(\C#N)c1nnc2n1CCCCC2 | -1.27
CCC(C)n1ncn(-c2ccc(N3CCN(c4ccc(OC)cc4)CC3)cc2)c1=O (stereo not given) | -0.724
CN(C)CCNC(CC(=O)Nc1ccc(Cl)c(Cl)c1)C(=O)O (stereo not given) | 0.422
COc1ccc(Cl)cc1NC(=O)CN(C)C(C)C(=O)NCC1CCCCC1 (stereo not given) | -0.369
CCC(=O)Nc1ccccc1C(=O)C(=O)Nc1ccccc1 | -0.178
CC(=O)c1nc(N2C(=O)CC(Cc3ccccc3)C2=O)sc1C (stereo not given) | -0.333
C(=N\Nc1nc2ccccc2s1)/c1ccco1 | 0.0919
Cc1ccc(-c2nc3ccsc3c(=O)o2)cc1 | -1.54
CCOc1ccc(C(=O)NC2CCN(C(=S)NCc3ccco3)CC2)cc1 | -0.0939
Cc1nn(Cc2c(Cl)cccc2Cl)c(C)c1NC(=O)CCCn1nc(C)c([N+](=O)[O-])c1C | -0.218
CC(=O)c1ccc(NC(=O)COC(=O)c2c3c(nc4ccccc24)/C(=C\c2cccs2)CCC3)cc1 | 0.0242
C/C(CC(=O)Nc1cccc2c1CCCC2)=N\NC(=O)c1cccc2ccccc12 | -0.483
CC1CCC2C(=O)N(c3ccc(C(=O)NCc4ccccc4)cc3)C(=O)C2C1 (stereo not given) | -0.51

Compound | z-score
CC(C)C(C)NC(=O)COc1ncnc2ccccc12 (stereo not given) | -0.0137
COc1ccc(C2CC(c3ccccc3)n3nnnc3N2)cc1 (stereo not given) | 0.842
CC(C)C(=O)Nc1ccc(C(=O)N2CCCCCC2)cc1 | 2.15
O=C(O)CNC(=S)N(Cc1ccco1)Cc1ccccc1Cl | -0.277
CNc1nc2cc([N+](=O)[O-])c([N+](=O)[O-])cc2nc1NC | 0.288
O=C1C2CC=CCC2C(=O)N1Cc1ccccc1 (stereo not given) | 0.693
Cc1nc(NC2=NCN(CCN3CCOCC3)CN2)nc2c(C)cccc12 | -0.131
CC(=O)OC1=Cc2c(ccc3ccc(=O)oc23)OC1(C)C | -0.074
CCC(C)[C@@H](NC(=O)OC(C)(C)C)c1nnc(S(=O)(=O)Cc2cccc(C)c2)o1 (stereo not given in full) | -1.26
O=C(COC(=O)/C=C/c1ccc(OC(F)F)cc1)Nc1ccc(S(=O)(=O)N2CCCC2)cc1 | -0.444
CCC(=O)NC(=S)Nc1cccc(Cl)c1N1CCCCC1 | 0.315
CCCCC(=O)NC1=NC(=O)C(C)(C)S1 | 0.316
O=C(NC(Cc1c[nH]c2ccccc12)C(=O)OCC(=O)c1cccc2ccccc12)c1cccs1 (stereo not given) | -0.308
CCn1nnnc1SCC(=O)Nc1nc(C)c(C)s1 | 0.0421
Cc1nc(-c2coc3cc(OCC(=O)O)ccc3c2=O)cs1 | -0.0655
O=C(CSc1nncs1)Nc1ccc2c(c1)OCCO2 | -0.308
Oc1ccccc1N=Nc1nc(-c2ccccc2)c(-c2ccccc2)[nH]1 | 0.115
COc1cc(/C=C/C(=O)OCC(=O)Nc2ccc3c(c2)OCCO3)ccc1O | -0.712
COc1ccc(C(c2c[nH]c3ccccc23)c2c[nH]c3ccccc23)cc1O | 0.143
CC(=O)Nc1ccccc1C(=O)C(=O)Nc1ccc(F)cc1 | -0.174
CC(=O)NC1C(=O)N(CC(C)C)c2ccccc21 (stereo not given) | -0.216
Cc1ccc(C(=O)COC(=O)CNC(=O)Cc2ccccc2)cc1[N+](=O)[O-] | -0.0605

Compound | z-score
COc1ccc(-n2nnnc2/C=C\Nc2ccccc2C(=O)c2ccccc2)cc1 | -0.171
CCC(=O)Nc1ccc(-c2nc(-c3ccccc3)n(CC(=O)N3CCCCC3)n2)cc1 | 0.92
Cn1c(NC(=O)C[n+]2cc(-c3ccc(Cl)c(Cl)c3)n3c2CCC3)cc(=O)n(C)c1=O | -0.217
COc1cc(OC)c2c(c1)C(=O)c1cc(OC)cc(OC)c1C2=O | -0.0118
CCOC(=O)CC(=O)CSc1nc2cc(C)ccc2cc1C | 0.9
CCOC(=O)C(C)Oc1ccc(C2NC(=O)NC(C)=C2C(=O)Nc2ccccc2C)cc1 (stereo not given) | -0.241
CCCn1c(SCC(=O)c2c(C)[nH]c(C)c2C(=O)OCC)nc2ccccc21 | -0.103
O=C(NCc1ccccc1)C12CC3CC(CC(C3)C1)C2 | -0.456
COc1ccc(CNc2nc3ccccc3n2CCN2CCOCC2)cc1 | 0.553
Cc1ccc(C)c(S(=O)(=O)Nc2ccc(S(=O)(=O)Nc3onc(C)c3C)cc2)c1 | 0.0505
CC1Cc2ccccc2N1C(=O)c1cc2sccc2n1Cc1ccccc1 (stereo not given) | -0.0901
Cc1cccc(CN2CCc3c(OCC(=O)NCc4ccco4)cccc3C2=O)c1 | -0.878
NC(N)=Nc1nc(C2COc3ccccc3O2)cs1 (stereo not given) | -0.488
COc1ccc(Cc2nnc(SCC(=O)N3CCN(c4ccccc4)CC3)o2)cc1 | 0.468
CCc1cc2c3c(c(=O)oc2cc1O)CCCC3 | -1.33
O=C(NC1(C(F)(F)F)NC(=O)N(C2CCCC2)C1=O)C1CC1 (stereo not given) | -0.129
COc1ccc(-c2ccc(=O)n(Cc3cc(=O)n4ccccc4n3)n2)cc1 | 0.329
Cn1c(=O)c2c(ncn2CCN(CCO)Cc2ccccc2)n(C)c1=O | 0.0401
Cc1cccc(CCNS(=O)(=O)c2ccc(S(=O)(=O)N3CCCCC3)cc2)c1 | 0.32
N/C(=N\OC(=O)CCCc1ccccc1)c1cccnc1 | -0.188
Cn1ncc(C#N)c1/N=C/N1CCCCC1 | -0.153
Cc1ccc(-c2csc3ncnc(NS(=O)(=O)c4ccc(Cl)cc4)c23)cc1 | -0.524

Compound | z-score
CCOC(=O)C1=C(NC#N)OC(C)=C(C)C1c1ccc(O)cc1 (stereo not given) | 1.53
O=S(=O)(c1ccccc1C(F)(F)F)N1CCN(S(=O)(=O)c2ccccc2C(F)(F)F)CC1 | 0.189
COc1ccccc1NS(=O)(=O)c1ccc(NC(=O)CCNC(=O)c2ccco2)cc1 | -1.14
Cc1ccc(C2=CC(C)(c3ccc(C)cc3)Nc3nc(C(F)(F)F)nn32)cc1 (stereo not given) | 0.165
Cc1cccc(CSc2nnc(C)c(=O)n2N)c1 | -0.107
O=S(=O)(NCC(c1ccco1)N1CCN(c2ccc(F)cc2)CC1)c1ccc(F)cc1 (stereo not given) | -0.142
O=C(C1c2ccccc2Oc2ccccc21)N1CCN(c2ccc(Cl)cc2)CC1 | 0.867
Cn1c(=N)n(CC(=O)c2ccc(Br)s2)c2ccccc21 | -0.0582
O=C(C(Cl)Cl)N1CCN(Cc2ccccc2)CC1 | 0.106
Cc1cccn2cc(CNS(=O)(=O)c3cccc(F)c3)nc12 | -0.127
O=C(CSc1ccc(Cl)cc1)Nc1ccc(-c2nc3ccccc3[nH]2)cc1 | 0.471
COC(=O)c1scc(C)c1NC(=O)Cc1ccccc1 | -0.147
CCNC(=O)n1nccc1C(C)Oc1ccc(Cl)cc1 (stereo not given) | -0.325
CC(=O)c1ccc(NC(=O)Nc2ccccc2)cc1 | 0.41
Cc1ccc(NC(=S)N/N=C2/CCCc3c(C)cc(C)cc32)cc1 | 0.985
O=C(NCc1cccnc1)c1ccc(=O)oc1 | 0.00474
CC(=O)Nc1cccc(C(=O)OCc2ccc(C(=O)Oc3ccc(Cl)cc3)cc2)c1 | 0.195
COc1ccc(CCNC(=O)CN2CCCc3ccccc32)cc1OC | -0.0618
O=C(CCCC(=O)OCC(=O)c1cccs1)Nc1ccc(Oc2ccccc2)cc1 | 0.148
N#CC1=C2SCN(Cc3ccco3)CN2C(=O)CC1c1ccccc1F (stereo not given) | -0.654
CC(C)c1ccc(OCC(O)Cn2cnc3ccccc32)cc1 (stereo not given) | -0.507
COC(=O)c1cc2c(s1)-c1ccccc1OC2 | -0.0119
